# ± gives the standard error. This sample is rich in variants without activity.
# B1: glmS ribozyme (parent)
# chain: AUAAAAGCGCCAGAACUACAGAAAUGUAGUUGACGAGGAGGAGGUUUAUCGAAUUUUCGGCGGAUGCCUCCAAA
# Columns and labels:
# Conditions in all cases: with glucosamine-6-phosphate
# glucosamine-6-phosphate [1] = variants of: B1; assay: self-cleavage kobs at 40 uM GlcN6P; higher = faster cleavage; RNA array
# Method in brief: (§1)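 Barcoded glmS ribozyme variants on sequenced MiSeq chips were transcribed in situ by E. coli RNA polymerase and tracked through a hybridised Cy3 probe at 37 °C. Glucosamine-6-phosphate (40 μM to 10 mM) in HEPES/KCl/Mg(OAc)2 buffer was flowed in, and tiles were imaged over ~14 h. Signals were normalised to baseline and to non-cleaving reference variants; per-tile medians were fit to one- or two-exponential decays to give kobs. kcat and KM came from weighted Michaelis–Menten fits across concentrations.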
# glucosamine-6-phosphate [2] = variants of: B1; assay: self-cleavage kobs at 640 uM GlcN6P; higher = faster cleavage; RNA array
# Method in brief: as §1
# glucosamine-6-phosphate [3] = variants of: B1; assay: self-cleavage kobs at 160 uM GlcN6P; higher = faster cleavage; RNA array
# Method in brief: as §1
# glucosamine-6-phosphate [4] = variants of: B1; assay: self-cleavage kobs at 2500 uM GlcN6P; higher = faster cleavage; RNA array
# Method in brief: as §1
# glucosamine-6-phosphate [5] = variants of: B1; assay: self-cleavage kobs at 10000 uM GlcN6P; higher = faster cleavage; RNA array
# Method in brief: as §1
Variant,self-cleavage kobs at 40 uM GlcN6P (glucosamine-6-phosphate [1]),self-cleavage kobs at 640 uM GlcN6P (glucosamine-6-phosphate [2]),self-cleavage kobs at 160 uM GlcN6P (glucosamine-6-phosphate [3]),self-cleavage kobs at 2500 uM GlcN6P (glucosamine-6-phosphate [4]),self-cleavage kobs at 10000 uM GlcN6P (glucosamine-6-phosphate [5])
A15G G38C,< 1e-05 s⁻¹,< 1e-05 s⁻¹,< 1e-05 s⁻¹,< 1e-05 s⁻¹,
G29C A48C,< 1e-05 s⁻¹,,< 1e-05 s⁻¹,,
G29C A48U,< 1e-05 s⁻¹,,,,
C16U C71G,6.56e-05 ± 7.6e-06 s⁻¹,0.000313 ± 4.5e-05 s⁻¹,0.00019 ± 2.6e-05 s⁻¹,0.000215 ± 3.4e-05 s⁻¹,0.000726 ± 0.0001 s⁻¹
A15U U56C C61U,< 1e-05 s⁻¹,,,,< 1e-05 s⁻¹
C16U U54A,0.000888 ± 0.00012 s⁻¹,0.00323 ± 0.00079 s⁻¹,0.00185 ± 0.0004 s⁻¹,0.00607 ± 0.0014 s⁻¹,0.0405 ± 0.0081 s⁻¹
A15U U57A U65A,< 1e-05 s⁻¹,< 1e-05 s⁻¹,,< 1e-05 s⁻¹,
G29C G43A U47A U54G C67G,< 1e-05 s⁻¹,,,,< 1e-05 s⁻¹
A15G C16G,9.12e-05 ± 2.2e-05 s⁻¹,0.0011 ± 0.00023 s⁻¹,0.000213 ± 6.8e-05 s⁻¹,0.00326 ± 0.00063 s⁻¹,0.00391 ± 0.00059 s⁻¹
A15U U56G,0.000149 ± 2.5e-05 s⁻¹,0.00143 ± 0.00018 s⁻¹,0.000265 ± 5e-05 s⁻¹,0.00363 ± 0.00053 s⁻¹,0.00565 ± 0.00088 s⁻¹
C16A G60U C68U,< 1e-05 s⁻¹,< 1e-05 s⁻¹,< 1e-05 s⁻¹,< 1e-05 s⁻¹,
C16A C34A G37U C50A C61A,0.000276 ± 6.5e-05 s⁻¹,,,,0.000316 ± 6.4e-05 s⁻¹
C16A C34U,< 1e-05 s⁻¹,< 1e-05 s⁻¹,< 1e-05 s⁻¹,< 1e-05 s⁻¹,
G29U A33U G35A U69A,0.000163 ± 6.6e-05 s⁻¹,,,,6.21e-05 ± 3e-05 s⁻¹
A15U G29C,4.56e-05 ± 9.9e-06 s⁻¹,0.000432 ± 7.6e-05 s⁻¹,0.000116 ± 3.3e-05 s⁻¹,0.000809 ± 0.00016 s⁻¹,0.00191 ± 0.0003 s⁻¹
C16G G38C U45G,< 1e-05 s⁻¹,,,,
C16A G32C A33G U49C,< 1e-05 s⁻¹,< 1e-05 s⁻¹,< 1e-05 s⁻¹,,
G29C C58U C71U,< 1e-05 s⁻¹,,,,5.59e-05 ± 1.7e-05 s⁻¹
G29A A33G G40C A42C G63U C68A,< 1e-05 s⁻¹,,< 1e-05 s⁻¹,< 1e-05 s⁻¹,< 1e-05 s⁻¹
G29C G38U A53G,< 1e-05 s⁻¹,,< 1e-05 s⁻¹,,< 1e-05 s⁻¹
A15G G41U,0.000204 ± 2.3e-05 s⁻¹,,,,
C16G A39G G51U U55A,< 1e-05 s⁻¹,,,,
G29C G41A,< 1e-05 s⁻¹,,,,

Variant,self-cleavage kobs at 40 uM GlcN6P (glucosamine-6-phosphate [1]),self-cleavage kobs at 640 uM GlcN6P (glucosamine-6-phosphate [2]),self-cleavage kobs at 160 uM GlcN6P (glucosamine-6-phosphate [3]),self-cleavage kobs at 2500 uM GlcN6P (glucosamine-6-phosphate [4]),self-cleavage kobs at 10000 uM GlcN6P (glucosamine-6-phosphate [5])
G29C G41U,< 1e-05 s⁻¹,,,,
G29A U31C G35U G66A,< 1e-05 s⁻¹,,,,
C16G A39C C50A U55A,< 1e-05 s⁻¹,,,,
G29U A42C G66U,< 1e-05 s⁻¹,< 1e-05 s⁻¹,,< 1e-05 s⁻¹,< 1e-05 s⁻¹
C16U U47G,0.000296 ± 4.7e-05 s⁻¹,,,,
C16U C50G G62A C67G,6.99e-05 ± 1.9e-05 s⁻¹,0.000337 ± 7.8e-05 s⁻¹,,,9.28e-05 ± 1.6e-05 s⁻¹
C16U A36C A42G U46C,< 1e-05 s⁻¹,,,,< 1e-05 s⁻¹
C16U U30G A33G U45G,< 1e-05 s⁻¹,,,,< 1e-05 s⁻¹
G29U A53U,8.45e-05 ± 1e-05 s⁻¹,0.00114 ± 0.00013 s⁻¹,0.000275 ± 4.9e-05 s⁻¹,0.00252 ± 0.00027 s⁻¹,0.00266 ± 0.00038 s⁻¹
A15U U47A,0.00015 ± 3.6e-05 s⁻¹,0.000846 ± 0.00036 s⁻¹,0.000273 ± 6.7e-05 s⁻¹,0.00263 ± 0.00057 s⁻¹,0.00356 ± 0.0009 s⁻¹
G29A G44U,< 1e-05 s⁻¹,,< 1e-05 s⁻¹,,
A15U G43U A48G G59U C67G,< 1e-05 s⁻¹,,,,< 1e-05 s⁻¹
C16A G51A C58A,< 1e-05 s⁻¹,,,< 1e-05 s⁻¹,
G29C G62A,< 1e-05 s⁻¹,< 1e-05 s⁻¹,,,
C16G G38C A42G A52C,< 1e-05 s⁻¹,,,,
C16G G35A,< 1e-05 s⁻¹,< 1e-05 s⁻¹,< 1e-05 s⁻¹,,< 1e-05 s⁻¹
G29C G37A G38U,< 1e-05 s⁻¹,,,,
C16G U30C C67A,< 1e-05 s⁻¹,,,,
C16G G35A A42U,< 1e-05 s⁻¹,,,,< 1e-05 s⁻¹
A15G C67U,0.000329 ± 5.2e-05 s⁻¹,0.00169 ± 0.00028 s⁻¹,0.000674 ± 0.00013 s⁻¹,0.00538 ± 0.0014 s⁻¹,0.00828 ± 0.0017 s⁻¹
A15G G35A A53C U65C,< 1e-05 s⁻¹,,,,< 1e-05 s⁻¹
A15G G66C,3.37e-05 ± 1.1e-05 s⁻¹,0.000368 ± 6e-05 s⁻¹,0.000115 ± 2.5e-05 s⁻¹,0.000793 ± 0.00014 s⁻¹,0.000649 ± 9.7e-05 s⁻¹
C16G G63C,< 1e-05 s⁻¹,< 1e-05 s⁻¹,,,< 1e-05 s⁻¹
